Results reported in the antibiotic and cytotoxicity screens of Wong et al. (2023).
This is one part of the list.

Key:
HSkMC = human skeletal muscle cells; assay: cytotoxicity call (relative viability < 0.9); conditions: 10 µM
HepG2 = assay: cytotoxicity call (relative viability < 0.9); conditions: 10 µM
S. aureus RN4220 = assay: growth inhibition call (relative growth <= 0.2); conditions: 50 µM

Structure (SMILES)	cytotoxicity call (HSkMC)	cytotoxicity call (HepG2)	growth inhibition call (S. aureus RN4220)
COc1ccc2cc(S(=O)(=O)N[C@H](CC(=O)N[C@H](Cc3ccc(CN4[C@H](C)CCC[C@@H]4C)cc3)C(=O)N(C)C(C)C)c3ccc4c(c3)OCO4)ccc2c1	inactive	inactive	inactive
CCCCS(=N)(=O)CC[C@H](N)C(=O)O (some centres undefined)	inactive	inactive	inactive
COCC(=O)N(C)C[C@@H]1Oc2cc(-c3ccc(C#N)cc3)ccc2S(=O)(=O)N([C@@H](C)CO)C[C@H]1C	inactive	inactive	inactive
N#Cc1ncoc1N1CCC(C(N)=O)CC1	inactive	inactive	inactive
C[C@H]1CN([C@@H](C)CO)C(=O)c2cc(-c3ccncc3)cnc2O[C@H]1CN(C)C(=O)Nc1ccc2c(c1)OCO2	inactive	inactive	inactive
COC(=O)Cn1c(=N)n(C)c2ccccc21	inactive	inactive	inactive
CO[C@@H]1CN(C)C(=O)c2cc(NS(=O)(=O)CC(F)(F)F)ccc2OC[C@H](C)N(Cc2ccccn2)C[C@H]1C	inactive	inactive	inactive
O=C(C[C@@H]1CC[C@H]2[C@@H](COC[C@H](O)CN2S(=O)(=O)c2ccc(F)cc2)O1)N[C@@H]1CCN(Cc2ccccc2)C1	inactive	inactive	inactive
C[C@@H]1CN([C@H](C)CO)C(=O)Cc2cc(NC(=O)Nc3ccc4c(c3)OCO4)ccc2O[C@H]1CN(C)Cc1ccc(C(=O)Nc2ccccc2N)cc1	inactive	inactive	inactive
C[C@@H]1CN([C@@H](C)CO)C(=O)c2c(c3ccccc3n2C)-c2ccccc2CO[C@H]1CN(C)Cc1cccc2c1OCCCO2	inactive	inactive	inactive
C[C@H]1CN([C@@H](C)CO)C(=O)c2cc(C3=CCCC3)cnc2O[C@H]1CN(C)C(=O)c1ccc2c(c1)OCO2	inactive	active	inactive
C[C@@H]1CCCCO[C@@H](CN(C)C(=O)C2CCCCC2)[C@H](C)CN([C@H](C)CO)C(=O)c2cc(NC(=O)NC3CCCCC3)ccc2O1	inactive	inactive	inactive
C[C@@H]1CN([C@@H](C)CO)C(=O)Cc2cc(NC(=O)Nc3ccc(C(F)(F)F)cc3)ccc2O[C@@H]1CN(C)C(=O)Nc1ccc2c(c1)OCO2	inactive	active	inactive
C[C@H]1CN([C@@H](C)CO)C(=O)c2cccc(NC(=O)c3cnccn3)c2O[C@@H]1CN(C)S(C)(=O)=O	inactive	inactive	inactive
C[C@@H]1CN([C@H](C)CO)C(=O)Cc2cc(NC(=O)CCCCCC(=O)Nc3ccccc3N)ccc2O[C@@H]1CN(C)Cc1ccc(-c2ccccc2)cc1	active	active	inactive
C[C@@H]1CN([C@H](C)CO)C(=O)Cc2cc(NS(C)(=O)=O)ccc2O[C@@H]1CN(C)Cc1ccc2c(c1)OCO2	inactive	inactive	inactive
CCCCC/C=C/CCC(=O)N[C@H]1[C@H](Oc2c3cc4cc2Oc2ccc(cc2Cl)[C@@H](O[C@@H]2O[C@H](CO)[C@@H](O)[C@H](O)[C@H]2NC(C)=O)[C@@H]2NC(=O)[C@H](NC(=O)[C@@H]4NC(=O)[C@H]4NC(=O)[C@@H](Cc5ccc(c(Cl)c5)O3)NC(=O)[C@H](N)c3ccc(O)c(c3)Oc3cc(O)cc4c3)c3ccc(O)c(c3)-c3c(O[C@H]4O[C@H](CO)[C@@H](O)[C@H](O)[C@@H]4O)cc(O)cc3[C@@H](C(=O)O)NC2=O)O[C@H](CO)[C@@H](O)[C@@H]1O	inactive	inactive	active
C[C@@H]1CCCCO[C@@H](CN(C)S(=O)(=O)c2ccccc2)[C@@H](C)CN([C@H](C)CO)C(=O)c2cc(NS(C)(=O)=O)ccc2O1	inactive	inactive	inactive
Cc1ccc(S(=O)(=O)Nc2cccc3c2O[C@H](CN(C)S(=O)(=O)c2ccccc2)[C@@H](C)CN([C@@H](C)CO)C3=O)cc1	inactive	inactive	inactive
Cn1cnc(S(=O)(=O)N2C[C@@H](O)COC[C@H]3O[C@@H](CC(=O)NCc4cccc(F)c4)CC[C@@H]32)c1	inactive	inactive	inactive
C[C@H]1CN([C@@H](C)CO)C(=O)Cc2cc(NC(=O)CCN3CCOCC3)ccc2O[C@H]1CN(C)S(C)(=O)=O	inactive	inactive	inactive
NC(=O)NCC#Cc1ccc2c(c1)[C@]1(C(=O)N2)[C@H](C(N)=O)[C@H]2C(=O)O[C@H](c3ccccc3)[C@H](c3ccccc3)N2[C@@H]1c1ccccc1OCCO	inactive	inactive	inactive
O=C1CC[C@H](C(=O)O)N1	inactive	inactive	inactive
Cc1noc(C)c1S(=O)(=O)Nc1ccc2c(c1)CC(=O)N([C@@H](C)CO)C[C@@H](C)[C@H](CN(C)C(=O)NC(C)C)O2	inactive	inactive	inactive
CCc1nc2ccc(C(=O)N3CCN(S(=O)(=O)CC)CC3)cn2c1N(C)Cc1ccc(Cl)cc1	inactive	inactive	inactive
Cc1ccc(S(=O)(=O)Nc2ccc3c(c2)C(=O)N(C)[C@@H]2CC[C@@H](CC(=O)NCCc4ccncc4)O[C@H]2CO3)cc1	inactive	inactive	inactive
Cc1ccc(Nc2nnc(-c3ccccc3)c3ccccc23)cc1	inactive	active	inactive

Structure (SMILES)	cytotoxicity call (HSkMC)	cytotoxicity call (HepG2)	growth inhibition call (S. aureus RN4220)
OC[C@H]1NC[C@@H](O)[C@@H](O)[C@@H]1O	inactive	inactive	inactive
C[C@@H]1CN([C@@H](C)CO)C(=O)c2c(c3ccccc3n2C)-c2ccccc2CO[C@H]1CN(C)Cc1cccc(C(=O)O)c1	inactive	inactive	inactive
Cc1noc(C)c1S(=O)(=O)Nc1ccc2c(c1)C(=O)N([C@H](C)CO)C[C@H](C)[C@H](CN(C)C(=O)NC(C)C)O2	inactive	inactive	inactive
COc1ccc(S(=O)(=O)N(C)C[C@H]2OCCCC[C@@H](C)Oc3ccc(NS(=O)(=O)c4ccc(Cl)cc4)cc3C(=O)N([C@H](C)CO)C[C@@H]2C)cc1	inactive	inactive	inactive
C[C@@H]1CN([C@H](C)CO)C(=O)c2cc(NS(=O)(=O)c3cccs3)ccc2O[C@@H](C)CCCCO[C@@H]1CN(C)Cc1ccc(Cl)c(Cl)c1	inactive	inactive	inactive
CC1(C)O[C@@H]2[C@@H](CO[C@@]3(COS(N)(=O)=O)OC(C)(C)O[C@@H]23)O1	inactive	inactive	inactive
C[C@@H]1CCCCO[C@H](CN(C)Cc2ccc3c(c2)OCO3)[C@H](C)CN([C@H](C)CO)C(=O)c2cc(NS(=O)(=O)c3ccc(F)cc3)ccc2O1	inactive	inactive	inactive
CC(C)NC(=O)N(C)C[C@H]1Oc2ccc(NC(=O)CCN3CCOCC3)cc2C(=O)N([C@H](C)CO)C[C@H]1C	inactive	inactive	inactive
C[C@H]1CN([C@@H](C)CO)C(=O)c2cccc(NC(=O)Nc3ccc(C(F)(F)F)cc3)c2O[C@H]1CN(C)S(=O)(=O)c1ccc(F)cc1	inactive	inactive	inactive
C[C@@H]1CCCCO[C@@H](CN(C)C(=O)Nc2ccc(F)cc2)[C@H](C)CN([C@H](C)CO)C(=O)c2cc(NS(=O)(=O)c3ccc(F)cc3)ccc2O1	inactive	inactive	inactive
Clc1ccc(C(Cn2ccnc2)OCc2ccsc2Cl)c(Cl)c1 (centres undefined)	inactive	inactive	active
O=C(C[C@@H]1CC[C@@H]2[C@H](COC[C@@H](O)CN2S(=O)(=O)c2ccccc2)O1)N1CCc2ccccc2C1	inactive	inactive	inactive
ON/C=N\c1nonc1-c1cccnc1	inactive	inactive	inactive
C[C@@H]1CN([C@H](C)CO)C(=O)Cc2cc(NS(C)(=O)=O)ccc2O[C@H]1CN(C)Cc1ccc(C(=O)Nc2ccccc2N)cc1	inactive	inactive	inactive
C[C@@H]1CN([C@H](C)CO)C(=O)Cc2cc(NC(=O)Cc3ccccc3)ccc2O[C@H]1CN(C)S(=O)(=O)c1ccc(F)cc1	inactive	inactive	inactive
C[C@@H]1CN([C@H](C)CO)C(=O)Cc2cc(NC(=O)C3CC3)ccc2O[C@H]1CN(C)S(=O)(=O)c1cccs1	inactive	inactive	inactive
N=C1NCCC(C2NC(=O)C(=CNC(N)=O)NC(=O)C(CNC(=O)CC(N)CCCN)NC(=O)C(CO)NC(=O)C(N)CNC2=O)N1.O=S(=O)(O)O (centres undefined)	inactive	inactive	inactive
CCS(=O)(=O)N1C[C@]2(CCN(CC2)S(=O)(=O)c2cn(cn2)C)c2c([nH]c3cc(ccc23)OC)[C@H]1CO	inactive	inactive	inactive
C[C@@H]1CCCCO[C@@H](CN(C)C(=O)Nc2cccc3ccccc23)[C@@H](C)CN([C@H](C)CO)C(=O)c2cc(NC(=O)NC3CCCCC3)ccc2O1	inactive	inactive	inactive
C[C@H]1CCCCO[C@H](CN(C)CC2CC2)[C@@H](C)CN([C@@H](C)CO)C(=O)c2cc(NC(=O)c3ccccc3)ccc2O1	inactive	inactive	inactive
C[C@H](CO)N1C[C@H](C)[C@@H](CN(C)S(=O)(=O)c2ccccc2)Oc2c(NC(=O)c3cnccn3)cccc2C1=O	inactive	inactive	inactive
C[C@H]1CN([C@@H](C)CO)C(=O)c2cc(NS(C)(=O)=O)ccc2O[C@H]1CN(C)C(=O)NC1CCCCC1	inactive	inactive	inactive
O[C@@H]1N[C@H](O)c2ccccc21	inactive	inactive	inactive
C[C@@H]1CN([C@@H](C)CO)C(=O)c2cc(NC(=O)Nc3ccccc3)ccc2O[C@@H]1CN(C)Cc1ccc(Cl)c(Cl)c1	active	active	inactive
C[C@@H]1CN([C@@H](C)CO)C(=O)c2cccc(NC(=O)C3CC3)c2O[C@H]1CN(C)S(=O)(=O)c1cccs1	inactive	inactive	inactive
C[C@@H]1CN([C@H](C)CO)C(=O)CCCn2cc(nn2)CO[C@H]1CN(C)C(=O)c1ccc(N2CCN(C)CC2)cc1	inactive	inactive	inactive
